Reference: ChEMBL document CHEMBL1961873, “Compounds: GSK PKIS; Assays: Nanosyn kinase panel” (2012)
For part of these data: What follows is the remainder of the data, with few or none of the strong results. The entries are a selection whose mix differs from that of the whole data set.

Tests used:
[1] = target: CDK3/Cyclin E (Homo sapiens) (UniProt P24864+Q00526); settings: at 1 µM;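 note: each figure is a mean percent inhibition of the CDK3/cyclin E complex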
[2] = target: Cyclin-dependent kinase 4 (Homo sapiens) (UniProt P11802); settings: at 0.1 µM
[3] = target: Cyclin-dependent kinase 4 (Homo sapiens) (UniProt P11802); settings: at 1 µM
[4] = target: Cyclin-dependent kinase 5 (Homo sapiens) (UniProt Q00535); settings: at 0.1 µM
[5] = target: Cyclin-dependent kinase 5 (Homo sapiens) (UniProt Q00535); settings: at 1 µM
[6] = target: Cyclin-dependent kinase 6 (Homo sapiens) (UniProt Q00534); settings: at 0.1 µM
[7] = target: Cyclin-dependent kinase 6 (Homo sapiens) (UniProt Q00534); settings: at 1 µM
[8] = target: Dual specificity protein kinase CLK2 (Homo sapiens) (UniProt P49760); settings: at 0.1 µM
[9] = target: Dual specificity protein kinase CLK2 (Homo sapiens) (UniProt P49760); settings: at 1 µM
[10] = target: Dual specificity protein kinase CLK3 (Homo sapiens) (UniProt P49761); settings: at 0.1 µM
[11] = target: Dual specificity protein kinase CLK3 (Homo sapiens) (UniProt P49761); settings: at 1 µM
[12] = target: Dual specificity tyrosine-phosphorylation-regulated kinase 1A (Homo sapiens) (UniProt Q13627); settings: at 0.1 µM
[13] = target: Dual specificity tyrosine-phosphorylation-regulated kinase 1A (Homo sapiens) (UniProt Q13627); settings: at 1 µM
[14] = target: Dual specificity tyrosine-phosphorylation-regulated kinase 1B (Homo sapiens) (UniProt Q9Y463); settings: at 0.1 µM
[15] = target: Dual specificity tyrosine-phosphorylation-regulated kinase 1B (Homo sapiens) (UniProt Q9Y463); settings: at 1 µM
[16] = target: T1, Dual specificity tyrosine-phosphorylation-regulated kinase 2 (Homo sapiens) (UniProt Q92630); settings: at 0.1 µM
T1 sequence (whole entry): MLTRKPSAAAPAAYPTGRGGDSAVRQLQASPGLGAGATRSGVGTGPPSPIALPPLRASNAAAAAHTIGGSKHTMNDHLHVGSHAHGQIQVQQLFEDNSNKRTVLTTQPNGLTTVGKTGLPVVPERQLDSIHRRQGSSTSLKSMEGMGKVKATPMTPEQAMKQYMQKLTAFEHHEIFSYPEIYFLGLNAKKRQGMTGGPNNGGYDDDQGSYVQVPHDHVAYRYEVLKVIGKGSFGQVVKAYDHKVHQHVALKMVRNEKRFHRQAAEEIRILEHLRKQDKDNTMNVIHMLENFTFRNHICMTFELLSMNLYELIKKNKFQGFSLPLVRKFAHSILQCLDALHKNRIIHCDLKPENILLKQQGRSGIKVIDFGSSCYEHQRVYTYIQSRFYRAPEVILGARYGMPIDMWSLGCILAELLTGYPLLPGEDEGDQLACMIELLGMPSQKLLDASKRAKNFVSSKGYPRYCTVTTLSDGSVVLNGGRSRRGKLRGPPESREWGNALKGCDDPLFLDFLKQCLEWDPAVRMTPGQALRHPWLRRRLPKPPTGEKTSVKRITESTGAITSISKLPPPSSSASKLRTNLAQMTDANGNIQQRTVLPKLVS

[17] = target: T1, Dual specificity tyrosine-phosphorylation-regulated kinase 2 (Homo sapiens); settings: at 1 µM
[18] = target: Glycogen synthase kinase-3 alpha (Homo sapiens) (UniProt P49840); settings: at 0.1 µM
[19] = target: Glycogen synthase kinase-3 alpha (Homo sapiens) (UniProt P49840); settings: at 1 µM
[20] = target: Glycogen synthase kinase-3 beta (Homo sapiens) (UniProt P49841); settings: at 0.1 µM;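 note: values are mean percent inhibition of GSK3B activity, from the GSK Published Kinase Inhibitor Set (PKIS) screening dataset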

| SMILES | inhibition [1] | inhibition [2] | inhibition [3] | inhibition [4] | inhibition [5] | inhibition [6] | inhibition [7] | inhibition [8] | inhibition [9] | inhibition [10] | inhibition [11] | inhibition [12] | inhibition [13] | inhibition [14] | inhibition [15] | inhibition [16] | inhibition [17] | inhibition [18] | inhibition [19] | inhibition [20] |
| --- | --- | --- | --- | --- | --- | --- | --- | --- | --- | --- | --- | --- | --- | --- | --- | --- | --- | --- | --- | --- |
| O=C(O)c1ccc(Oc2nccc(-c3c(-c4ccc(F)cc4)ncn3C3CCNCC3)n2)cc1 | -1.16% | 3.72% | 4.08% | 1.49% | 0.26% | -1.62% | 0.34% | 0.79% | 4.14% | 0.91% | 2.43% | 2.82% | 3.38% | -0.5% | -0.18% | 4.17% | 8.56% | 2.11% | 1.87% | 1.1% |
| Cc1cccc(Oc2nccc(-c3c(-c4ccc(F)cc4)ncn3C3CCNCC3)n2)c1C | -1.44% | 3.16% | 5.15% | 2.05% | 3.49% | -2.52% | -1.71% | -0.68% | -0.35% | 1.88% | 0.94% | 3.48% | 3.76% | -1.24% | 0.42% | 2.91% | 1.81% | 4.56% | 4.51% | 2.52% |
| CS(=O)(=O)c1ccc(Oc2nccc(-c3c(-c4ccc(F)cc4)ncn3C3CCNCC3)n2)cc1 | -5.23% | 1.4% | 3% | -0.5% | -0.46% | 0.71% | -0.9% | 0.95% | -0.63% | 0.25% | 0.22% | 2.01% | 3.13% | -3.03% | -2.34% | 1.98% | 2.49% | 1.47% | 3.81% | 0.64% |
| Fc1ccc(-c2ncn(C3CCNCC3)c2-c2ccnc(Oc3ccc(Cl)cc3)n2)cc1 | -0.59% | -0.8% | 1.37% | 0.23% |  | -2.97% | -2.58% | 0.13% | 0.74% |  | 0.05% | 1.12% | 1.2% | 0.04% | 0.73% | -0.08% | 0.96% | 0.79% | 2.27% | 1.01% |
| O=C1NC(=O)C(c2ccccc2)=C1Nc1ccccc1 | 1.36% | 5.7% | 13.3% | 1.94% | 7.42% | 2.92% | 10.4% | 2.47% | 10.4% | 1.85% | 4.88% | 5.17% | 17.3% | 2.25% | 7.93% | 3.42% | 3.62% | 19.2% | 55.5% |  |
| COc1ccccc1C1=C(Nc2ccccc2)C(=O)NC1=O | 29.5% | 6.73% | 29.4% | 3.17% | 20.2% | 4.76% | 20.8% | 7.88% | 49.2% | 2.3% | 8.2% | 2.95% | 23.5% | 4.01% | 22% | 2.64% | 3.03% | 26.8% | 69.2% |  |
| O=C1NC(=O)C(c2ccccc2Cl)=C1Nc1cc(Cl)c(O)c(Cl)c1 | 1.82% | 2.68% | 6.41% | 0.42% | 2.95% | 4.76% | 7.77% | 3.44% | 12.3% | 3.59% | 4.11% | 1.79% | 9.53% | 0.73% | 7.02% | 2.54% | 2.84% | 16.4% | 60.9% |  |
| O=C1NC(=O)C(c2cccc([N+](=O)[O-])c2)=C1Nc1cc(Cl)c(O)c(Cl)c1 | -1.8% | 1.16% | 5.72% | 0.17% | 2.27% | -0.6% | 1.57% | 2.51% | 12.5% | -0.26% | 2.15% | 1.91% | 20.1% | 0.13% | 10.5% | -0.18% | -1.6% | 48.3% |  |  |
| Fc1ccc(-c2ncn(C3CCNCC3)c2-c2ccnc(Oc3cccc(F)c3)n2)cc1 | -0.04% | 1.38% | 1.76% | 0.34% | 1.14% | 1.69% | 0.32% | 1.73% | 3.47% | 1.25% | 2.22% | 3.35% | 6.16% | -0.55% | 1.8% | 3.84% | 6.27% | 2.81% | 3.76% | 3.1% |
| Fc1ccc(-c2ncn(C3CCNCC3)c2-c2ccnc(Oc3cccc(C(F)(F)F)c3)n2)cc1 | -2.05% | 2.74% | 5.2% | 0.19% | 0.86% | 2.48% | -1.01% | 1.24% | 0.21% | 0.94% | 1.46% | 2.5% | 4.13% | -0.62% | -0.35% | 4.43% | 2.66% | 4.18% | 3.44% | 2.57% |
| Fc1ccc(Oc2nccc(-c3c(-c4ccc(F)cc4)ncn3C3CCNCC3)n2)cc1 | -1.09% | -0.04% | -0.17% | -2.5% | -1.74% | -5.32% | -4.91% | 1.73% | 5.31% | -3.02% | -2.72% | -1.7% | 0.72% | -3.86% | -2.43% | 3.37% | 7.29% | -1.06% | -1.44% | -1.98% |
| NC(=O)CCc1ccccc1Oc1nccc(-c2c(-c3ccc(F)cc3)ncn2C2CCNCC2)n1 | -0.48% | 0.06% | 0.88% | 0.01% | 0.72% | -0.95% | 0.07% | -0.81% | -1.21% | 0.18% | 0.49% | 0.97% | 1.86% | 1.93% | 1.76% | -0.57% | -1.39% | 1.92% | 0.57% | 0.1% |
| CC(C)(C)c1ccc(Oc2nccc(-c3c(-c4ccc(F)cc4)ncn3C3CCNCC3)n2)cc1 | -0.43% | 1.5% | 6.51% | 4.8% | 4.43% | -1.34% | 2.19% | -0.22% | 0.28% | -0.41% | -0.16% | 1.75% | 3.55% | -3.25% | -2.11% | 2.34% | 1.38% | 2.66% | 5.93% | 1.77% |
| COc1ccccc1Oc1nccc(-c2c(-c3ccc(F)cc3)ncn2C2CCNCC2)n1 | -1.34% | 2.25% | 7.64% | 5.2% | 7.05% | 1.89% | 2.29% | 1.18% | 0.48% | 1.16% | 1.09% | 3.51% | 4.65% | -0.1% | 2.12% | 3.68% | 3.17% | 4.26% | 7.7% | 4.08% |
